Measured values reported in PMC4336329 (PLoS ONE, 2015).
Among all 310,000 compounds or so, about 14,000 (4.5%) showed an effect of 50% or more. Effects have a minus sign here. The list shows a part of the results.

Biological target: human ether-à-go-go-related gene (hERG) potassium channel (human, UniProt Q12809)
Assay: primary screen, population patch clamp on CHO cells stably expressing hERG
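Also: peak tail current of the secondary pulse compared with the same well before compound.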

Chain of human ether-à-go-go-related gene (hERG) potassium channel (Q12809 whole entry, looked up): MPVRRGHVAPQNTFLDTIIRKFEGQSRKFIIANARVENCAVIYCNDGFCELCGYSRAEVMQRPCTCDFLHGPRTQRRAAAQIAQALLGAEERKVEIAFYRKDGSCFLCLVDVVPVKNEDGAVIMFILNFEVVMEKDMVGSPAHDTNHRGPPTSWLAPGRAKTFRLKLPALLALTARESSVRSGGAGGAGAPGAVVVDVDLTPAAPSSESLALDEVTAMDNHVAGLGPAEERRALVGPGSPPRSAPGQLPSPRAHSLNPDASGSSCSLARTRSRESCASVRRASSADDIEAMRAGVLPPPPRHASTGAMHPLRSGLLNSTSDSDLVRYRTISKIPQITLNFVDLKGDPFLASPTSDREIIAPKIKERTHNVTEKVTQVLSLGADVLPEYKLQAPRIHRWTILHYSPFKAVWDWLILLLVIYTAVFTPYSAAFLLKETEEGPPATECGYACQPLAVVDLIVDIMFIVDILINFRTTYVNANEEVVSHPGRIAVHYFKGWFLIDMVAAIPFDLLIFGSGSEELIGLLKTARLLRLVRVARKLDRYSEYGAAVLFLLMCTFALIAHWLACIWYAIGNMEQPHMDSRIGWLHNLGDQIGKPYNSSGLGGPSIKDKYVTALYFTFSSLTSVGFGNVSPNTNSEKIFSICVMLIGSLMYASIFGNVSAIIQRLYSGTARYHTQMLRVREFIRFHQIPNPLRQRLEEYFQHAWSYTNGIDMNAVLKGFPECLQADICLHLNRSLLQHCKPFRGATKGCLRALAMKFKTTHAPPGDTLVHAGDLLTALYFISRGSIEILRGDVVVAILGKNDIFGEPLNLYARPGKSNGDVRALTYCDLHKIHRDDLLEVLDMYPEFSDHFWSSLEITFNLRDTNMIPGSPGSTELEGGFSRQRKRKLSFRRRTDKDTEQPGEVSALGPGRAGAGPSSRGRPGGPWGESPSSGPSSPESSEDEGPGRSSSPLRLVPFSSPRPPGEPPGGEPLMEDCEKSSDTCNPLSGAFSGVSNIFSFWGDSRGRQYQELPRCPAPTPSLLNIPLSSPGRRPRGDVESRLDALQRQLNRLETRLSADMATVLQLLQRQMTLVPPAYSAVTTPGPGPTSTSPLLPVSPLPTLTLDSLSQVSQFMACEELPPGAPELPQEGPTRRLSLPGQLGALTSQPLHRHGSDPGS

| SMILES | hERG current change (%, negative = inhibition) at 10uM |
| --- | --- |
| O=C1N=c2ccccc2=C1c1sc(=S)n(Cc2ccccc2Cl)c1O | 5.81% |
| Cn1c(=O)n(C)c2cc(NC(=O)CSc3nc4ccccc4c(=O)[nH]3)ccc21 | 15.2% |
| Cc1ccc(CSCCNC(=O)c2ccc(NS(C)(=O)=O)cc2)cc1 | -15.6% |
| COc1ccc(-c2nnc(NC(=O)C3CCCN3S(=O)(=O)c3cccs3)o2)cc1 (centres unmarked) | -3.47% |
| CC(Oc1cccc(Cl)c1)C(=O)Nc1ccccc1N1CCCC1 (centres unmarked) | -15.3% |
| CCOC(=O)c1c(C)[nH]c(C)c1S(=O)(=O)N(C)CC(=O)N1CCN(c2ccc(OC)cc2)CC1 | -15.9% |
| CCn1c(C)nc2cc(S(N)(=O)=O)ccc21 | 21.9% |
| CCCOC(=O)c1ccc(NC(=O)CCC(=O)OCC)cc1 | 3% |
| COc1cc(/C=N/O)cc(Br)c1OS(=O)(=O)c1ccc(C)cc1 | 0.747% |
| COc1ccc(CCNCC(=O)Nc2ccc(C)c(S(=O)(=O)N(C)C)c2)cc1.O=C(O)C(=O)O | -35.2% |
| COc1ccc(S(=O)(=O)N(C)C)cc1NS(=O)(=O)c1ccc(F)c(F)c1F | 9.39% |
| COc1ccc(F)cc1S(=O)(=O)Nc1cccc(C(=O)O)c1 | -4.14% |
| CCOC(=O)c1[nH]c(=O)[nH]c1CNc1ccccc1C#N | 12.8% |
| COc1ccc(-c2nc(CS(=O)(=O)CC(=O)Nc3ccc(Cl)cc3)c(C)o2)cc1 | -2.99% |
| COc1cccc(C2C(C(=O)/C=C/c3ccco3)=C(O)C(=O)N2CCN2CCOCC2)c1 (centres unmarked) | 14.2% |
| CNc1nc(CC(C)=O)ns1 | 12.7% |
| COc1ccc(NC(=O)CSc2nnc3ccc(-c4ccncc4)nn23)cc1OC | -9.01% |
| FC(F)(F)c1nnc2c(Sc3ccc(Cl)cc3)nc3ccccc3n12 | 13.5% |
| Cc1ccc(C(C(=O)NC2CCCCC2)N(Cc2cccnc2)C(=O)c2csnn2)cc1 (centres unmarked) | -21.7% |
| CCOP(=O)(/C(C#N)=C(/O)c1ccccc1)c1ccccc1 (centres unmarked) | 8.44% |
| Nc1cc(=O)[nH]c(SCC(=O)Nc2cc(Cl)ccc2Cl)n1 | 6.95% |
| O=c1c2ccccc2nc(SCc2nnc(-c3ccccc3Br)o2)n1-c1ccccc1 | -1.38% |

| SMILES | hERG current change (%, negative = inhibition) at 10uM |
| --- | --- |
| O=C(NCCc1c[nH]c2ccccc12)c1cc([N+](=O)[O-])cc([N+](=O)[O-])c1 | -0.209% |
| COc1ccc2c(c1)c1nnc(SCC(=O)N3C(C)CCCC3C)nc1n2C (centres unmarked) | -26% |
| Cc1ccc(C)c(NC(=O)C(OC(=O)c2cnc(C)cn2)c2ccccc2)c1 (centres unmarked) | 5.8% |
| O=C(NCCc1ccccc1)c1ccc(NC(=O)c2cccnc2)cc1 | 14.2% |
| Nc1ccc2nc(-c3cc(Cl)c(N)c(Cl)c3)[nH]c2c1 | -6.72% |
| COc1cc(/C=N/NC(=O)c2cnn3c(C)cc(-c4ccccc4)nc23)ccc1O | -3.56% |
| COCCN(C(=O)COC(=O)CCOc1ccccc1)c1c(N)n(Cc2ccccc2)c(=O)[nH]c1=O | 16.6% |
| COc1ccc(NC(=O)CSCC(=O)Nc2nnc(C3CC3)s2)cc1 | 2.87% |
| COc1ccc(CNC(=O)C(=O)NCCCn2ccnc2)cc1 | 23.4% |
| COc1cc(C(=O)Nc2ccc(S(=O)(=O)N3CCOCC3)cc2)c([N+](=O)[O-])cc1OC | 19.4% |
| O=C(CSC1=NCCS1)N1CCN(c2ccc(Cl)cc2)CC1 | -29.3% |
| Cc1ccc(C(C(=O)NC2CCCCC2)N2CCC3(CC2)OCCO3)cc1 (centres unmarked) | 10% |
| Cc1ccc(S(=O)(=O)N(CC(=O)Nc2ccccc2)C(=O)N2CCN(C)CC2)cc1 | 10.3% |
| CN(C)S(=O)(=O)c1ccc(Cl)c(NC(=O)COC(=O)c2cc(-c3ccccc3)nc3ccccc23)c1 | 12.1% |
| COc1ccc(C(C(=O)NC2CCCC2)N(C(=O)c2ccoc2C)c2cc(C)cc(C)c2)cc1 (centres unmarked) | -10.9% |
| COc1ccccc1NC(=O)Cn1nnc(-c2ccccc2NS(=O)(=O)c2ccccc2)n1 | 0.108% |
| Cc1cccc(N2CC(C(=O)Nc3nnc(SCCC4OCCO4)s3)CC2=O)c1 (centres unmarked) | 6.28% |
| O=C(C[n+]1ccc(/C=N/O)cc1)N1CCCCC1.[Cl-] | 9.49% |
| COc1ccc(C(=O)Nc2ccccc2C(=O)N(Cc2ccco2)C(C(N)=O)C(C)C)cc1 (centres unmarked) | 6.67% |
| Cc1oc(-c2cccs2)nc1CN1CCN(Cc2ccc(F)c(F)c2)C(CCO)C1 (centres unmarked) | -47.2% |
| COc1cc(-c2nc(C(=O)NC3CCN(Cc4ccccc4)CC3)cc3c2[nH]c2ccccc23)cc(OC)c1OC | -59.6% |
| N#Cc1c(Nc2ccc(Cl)cc2)s[nH]c1=O | -4.96% |

| SMILES | hERG current change (%, negative = inhibition) at 10uM |
| --- | --- |
| CCN(CC)CCNC(=S)Nc1ccc2nc(N3CCOCC3)cc(C)c2c1 | 11.7% |
| CC(=O)N1c2ccccc2C(C)(C)C2CCC(C)CC21 (centres unmarked) | -8.9% |
| O=C(Nc1ccc(C(=O)O)cc1)/C(=C\c1ccco1)NC(=O)c1ccco1 | 21.3% |
| Cn1c2c(c(=O)n(C)c1=O)C(c1cccc(F)c1)C(C#N)=C(N)O2 (centres unmarked) | 17.7% |
| C=CCn1c(Cc2cccs2)nnc1SC/C=C/c1ccccc1 | -17.7% |
| CCN1CCN(CC(=O)N2c3ccccc3Sc3ccccc32)CC1 | 5.94% |
| COc1ccc(NC(C)=O)cc1NC(=O)CSc1nnc(C2CCCCC2)n1N | 8.83% |
| COc1ccc(NC(=O)c2ccsc2NC(C)=O)cc1 | 5.57% |
| O=C(CSc1nnc(CNC(=O)c2c(F)cccc2Cl)o1)NC1CCCC1 | 15.4% |
| O=C(CCCc1nc(-c2ccccc2Cl)no1)NC1CCCC1 | 5.52% |
| Cn1nnnc1Sc1ccc([N+](=O)[O-])cc1Cl | -5.36% |
| Cc1ccc(S(=O)(=O)NCc2ccc3c(c2)OCO3)cc1C | -10.4% |
| O=C(c1cc2cc(Cl)ccc2oc1=O)N1CCN(c2ccccn2)CC1 | -6.18% |
| Cc1ccc(C(=O)NCc2ccccn2)cc1NC1=NC2CS(=O)(=O)CC2S1 (centres unmarked) | 21.5% |
| COc1ccc(-c2cc3cc(OC)c(OC)cc3c(C)n2)cc1C | 2.93% |
| CC1CCN(C(=O)CCNS(=O)(=O)c2ccc(Br)cc2)CC1 | -13.4% |
| CC(C)N1C(=O)C2(OCCCO2)c2cc(Br)ccc21 | 29% |
| CN(Cc1ccccc1)C(=O)c1[nH]cnc1C(=O)Nc1ccc(Cl)cc1 | -0.308% |
| COc1ccccc1OCc1ccc(C(=O)NC(C)(C)C)o1 | 2.29% |
| CCOc1ccccc1-n1c(CNc2ccc(F)cc2)nnc1SCC(=O)NCc1ccco1 | -35.8% |
| Cc1cc2c(c(=O)n1CCc1ccccc1)C(c1ccco1)C(C#N)=C(N)O2 (centres unmarked) | 0.227% |
| CCOc1ccc(S(=O)(=O)Nc2cccc(C)c2)c2cccnc12 | 6.58% |

| SMILES | hERG current change (%, negative = inhibition) at 10uM |
| --- | --- |
| CC(Sc1ccccc1)C(=O)NCCc1ccccc1 (centres unmarked) | 9.11% |
| O=C(CC12CC3CC(CC(C3)C1)C2)NCO | 5.89% |
| O=C(c1ccco1)N1CCN(CCOc2ccccc2)CC1 | 0.652% |
| Cn1c(SCC(=O)c2ccc3c(c2)OCCO3)nnc1C1CC1 | 7.59% |
| O=Cc1cn(-c2ccccc2)nc1-c1ccccc1 | 11.7% |
| O=C(O)CC/C(=C\c1ccc2c(c1)OCO2)c1nc2ccccc2s1 | 7.43% |
| CC(=O)Nc1ccc(/C=C2/Sc3ccccc3C2=O)cc1 | 30.8% |
| COc1ccc(-n2c(Cc3cccn3C)nnc2SCC(=O)Nc2cccc(Cl)c2)cc1 | -28.6% |
| Cc1ccc(NC(=O)C2CCN(C(=O)[C@@H]3Cc4ccccc4CN3)CC2)cc1 | -67.3% |
| O=C(CNC(=O)c1ccccc1F)N/N=C/c1cccs1 | 14.7% |
| Cc1noc(N)c1C(=O)Nc1ccc(C(C)(C)C)cc1 | -15% |
| CC(C)c1c(C(=O)N/N=C/C=C/c2ccccc2)nnn1-c1nonc1N | 20.6% |
| Cc1ccc(OCc2nnc(SCC(=O)C(C)(C)C)n2Cc2ccco2)cc1 | -38.9% |
| CC(=O)N1c2ccc(S(=O)(=O)NCCC(=O)Nc3ccc(C)c(F)c3)cc2CC1C (centres unmarked) | 3.97% |
| CC(=O)c1ccc(N2CCN(S(=O)(=O)c3ccc(-c4cnc(C5CC5)o4)cc3)CC2)cc1 | -1.95% |
| COc1cccc(-c2nnc(SCC(=O)N3CCCc4ccccc43)o2)c1 | -11.9% |
| CC(Oc1ccccc1)C(=O)NC1CCCCCCC1 (centres unmarked) | -2.77% |
| O=C(Nc1cccc(-c2cn3ccsc3n2)c1)c1ccccc1 | -16.5% |
| C/C(=N\NC(=O)c1ccco1)c1ccc(-c2ccccc2)cc1 | -2.72% |
| COc1cc(F)ccc1S(=O)(=O)N1CCN(c2ccccc2)CC1 | -18.3% |
